Experimental data from EPA's CvTdb concentration-time database.
The source gives many values for each of these; only a part stands here.

Legend:
Rat [1] = assay: concentration in plasma after dosing; conditions: 10 min; dosed: 2-Methyltetrahydrofuran; 30 mg/kg; oral; Female; F344
Rat [2] = assay: concentration in brain after dosing; conditions: 12 h; dosed: 2-Methyltetrahydrofuran; 400 mg/kg; oral; Female; F344
Rat [3] = assay: concentration in brain after dosing; conditions: 2 h; dosed: 2-Methyltetrahydrofuran; 10 mg/kg; iv; Female; F344
Rat [4] = assay: concentration in plasma after dosing; conditions: 20 min; dosed: 2-Methyltetrahydrofuran; 10 mg/kg; oral; Female; F344
Rat [5] = assay: concentration in brain after dosing; conditions: 20 min; dosed: 2-Methyltetrahydrofuran; 400 mg/kg; oral; Female; Harlan Sprague Dawley
Rat [6] = assay: concentration in plasma after dosing; conditions: 0.25 h; dosed: 2-Methyltetrahydrofuran; 10 mg/kg; oral; Female; F344
Rat [7] = assay: concentration in plasma after dosing; conditions: 2 h; dosed: 2-Methyltetrahydrofuran; 10 mg/kg; iv; Male; F344
Rat [8] = assay: concentration in brain after dosing; conditions: 10 min; dosed: 2-Methyltetrahydrofuran; 100 mg/kg; oral; Female; Harlan Sprague Dawley
Rat [9] = assay: concentration in plasma after dosing; conditions: 20 min; dosed: 2-Methyltetrahydrofuran; 100 mg/kg; oral; Female; Harlan Sprague Dawley
Rat [10] = assay: concentration in plasma after dosing; conditions: 4 min; dosed: 2-Methyltetrahydrofuran; 30 mg/kg; oral; Female; F344
Rat [11] = assay: concentration in plasma after dosing; conditions: 8 h; dosed: 2-Methyltetrahydrofuran; 100 mg/kg; oral; Male; Harlan Sprague Dawley
Rat [12] = assay: concentration in plasma after dosing; conditions: 3 h; dosed: 2-Methyltetrahydrofuran; 30 mg/kg; oral; Male; F344
Rat [13] = assay: concentration in brain after dosing; conditions: 0.25 h; dosed: 2-Methyltetrahydrofuran; 10 mg/kg; iv; Female; F344
Rat [14] = assay: concentration in plasma after dosing; conditions: 0.75 h; dosed: 2-Methyltetrahydrofuran; 10 mg/kg; oral; Female; F344
Rat [15] = assay: concentration in plasma after dosing; conditions: 6 h; dosed: 2-Methyltetrahydrofuran; 100 mg/kg; oral; Female; Harlan Sprague Dawley
Rat [16] = assay: concentration in plasma after dosing; conditions: 1.5 h; dosed: 2-Methyltetrahydrofuran; 30 mg/kg; oral; Male; F344
Rat [17] = assay: concentration in brain after dosing; conditions: 20 min; dosed: 2-Methyltetrahydrofuran; 10 mg/kg; iv; Female; F344
Rat [18] = assay: concentration in plasma after dosing; conditions: dosed: Bromochloroacetic acid, 40 mg/kg, oral, Female, F344
Rat [19] = assay: concentration in plasma after dosing; conditions: 10 min; dosed: Bromochloroacetic acid; 10 mg/kg; iv; Male; F344
Rat [20] = assay: concentration in plasma after dosing; conditions: dosed: Bromochloroacetic acid, 100 mg/kg, oral, Male, F344
Rat [21] = assay: concentration in plasma after dosing; conditions: 5 min; dosed: Bromochloroacetic acid; 10 mg/kg; iv; Male; F344
Rat [22] = assay: concentration in plasma after dosing; conditions: dosed: Fluorotelomer alcohol 8+2, 48 mg/kg, oral, Male, Harlan Sprague Dawley
Rat [23] = assay: concentration in plasma after dosing; conditions: dosed: Formamide, 36 mg/kg, oral, Female, Harlan Sprague Dawley
Rat [24] = assay: concentration in plasma after dosing; conditions: dosed: Formamide, 300 mg/kg, oral, Female, Harlan Sprague Dawley
Rat [25] = assay: concentration in plasma after dosing; conditions: 2 h; dosed: Formamide; 30 mg/kg; iv; Female; F344
Rat [26] = assay: concentration in plasma after dosing; conditions: dosed: Formamide, 36 mg/kg, oral, Female, Harlan Sprague Dawley; remark: listed apart in the source
Rat [27] = assay: concentration in plasma after dosing; conditions: dosed: Formamide, 30 mg/kg, iv, Female, F344
Rat [28] = assay: concentration in plasma after dosing; conditions: 6 h; dosed: Pyridine; 50 mg/kg; oral; Female; Harlan Sprague Dawley
Rat [29] = assay: concentration in plasma after dosing; conditions: dosed: Pyridine, 5 mg/kg, oral, Female, F344
Rat [30] = assay: concentration in plasma after dosing; conditions: dosed: Pyridine, 5 mg/kg, iv, Female, Harlan Sprague-Dawley
Rat [31] = assay: concentration in plasma after dosing; conditions: 9 h; dosed: Pyridine; 200 mg/kg; oral; Female; Harlan Sprague Dawley
Rat [32] = assay: concentration in plasma after dosing; conditions: 40 min; dosed: Pyridine; 50 mg/kg; oral; Male; Harlan Sprague Dawley
Rat [33] = assay: concentration in plasma after dosing; conditions: 2 min; dosed: Pyridine; 50 mg/kg; oral; Male; Harlan Sprague Dawley
Rat [34] = assay: concentration in plasma after dosing; conditions: dosed: Pyridine, 100 mg/kg, oral, Male, F344
Rat [35] = assay: concentration in plasma after dosing; conditions: dosed: Pyridine, 5 mg/kg, iv, Female, F344
Rat [36] = assay: concentration in plasma after dosing; conditions: 10 min; dosed: Pyridine; 10 mg/kg; oral; Male; Harlan Sprague Dawley
Rat [37] = assay: concentration in plasma after dosing; conditions: 2 h; dosed: Pyridine; 50 mg/kg; oral; Female; F344

Structure (SMILES): CC1CCCO1 (stereo not drawn) [2-Methyltetrahydrofuran]
- concentration in plasma (Rat [1]): 16.7 µg/mL
- concentration in brain (Rat [2]): 19.7 µg/g
- concentration in brain (Rat [3]): 0.0774 µg/g
- concentration in plasma (Rat [4]): 2.87 µg/mL
- concentration in brain (Rat [5]): 144 µg/g
- concentration in plasma (Rat [6]): 3.26 µg/mL
- concentration in plasma (Rat [7]): 0.21 µg/mL
- concentration in brain (Rat [8]): 51.9 µg/g
- concentration in plasma (Rat [9]): 49.3 µg/mL
- concentration in plasma (Rat [10]): 12.4 µg/mL
- concentration in plasma (Rat [11]): 0.0873 µg/mL
- concentration in plasma (Rat [12]): 1.66 µg/mL
- concentration in brain (Rat [13]): 4.74 µg/g
- concentration in plasma (Rat [14]): 1.36 µg/mL
- concentration in plasma (Rat [15]): 6.03 µg/mL
- concentration in plasma (Rat [16]): 9.95 µg/mL
- concentration in brain (Rat [17]): 3.51 µg/g

Structure (SMILES): O=C(O)C(Cl)Br (stereo not drawn) [Bromochloroacetic acid]
- concentration in plasma (Rat [18]; 4 h): 2.61 µg/mL
- concentration in plasma (Rat [18]; 6 h): 0.59 µg/mL
- concentration in plasma (Rat [19]): 4.56 µg/mL
- concentration in plasma (Rat [20]; 5 min): 4.32 µg/mL
- concentration in plasma (Rat [20]; 3 h): 12.3 µg/mL
- concentration in plasma (Rat [21]): 10.7 µg/mL

Structure (SMILES): OCCC(F)(F)C(F)(F)C(F)(F)C(F)(F)C(F)(F)C(F)(F)C(F)(F)C(F)(F)F [Fluorotelomer alcohol 8+2]
- concentration in plasma (Rat [22]; 1 h): 835 ng/mL
- concentration in plasma (Rat [22]; 24 h): 5.95 ng/mL

Structure (SMILES): NC=O [Formamide]
- concentration in plasma (Rat [23]; 0.25 h): 25.8 µg/mL
- concentration in plasma (Rat [23]; 5 h): 48.4 µg/mL
- concentration in plasma (Rat [24]; 0.25 h): 143 µg/mL
- concentration in plasma (Rat [24]; 5 h): 241 µg/mL
- concentration in plasma (Rat [25]): 42.3 µg/mL
- concentration in plasma (Rat [26]; 0.25 h): 28.6 µg/mL
- concentration in plasma (Rat [26]; 5 h): 54.6 µg/mL
- concentration in plasma (Rat [27]; 10 min): 45.5 µg/mL
- concentration in plasma (Rat [27]; 18 h): 13.4 µg/mL

Structure (SMILES): c1ccncc1 [Pyridine]
- concentration in plasma (Rat [28]): 16.2 µg/mL
- concentration in plasma (Rat [29]; 1 h): 3.31 µg/mL
- concentration in plasma (Rat [29]; 8 h): 0.917 µg/mL
- concentration in plasma (Rat [30]; 5 min): 6260 ng/mL
- concentration in plasma (Rat [30]; 8 h): 390 ng/mL
- concentration in plasma (Rat [31]): 73.2 µg/mL
- concentration in plasma (Rat [32]): 35.3 µg/mL
- concentration in plasma (Rat [33]): 0.393 µg/mL
- concentration in plasma (Rat [34]; 1 h): 64.7 µg/mL
- concentration in plasma (Rat [34]; 8 h): 66.9 µg/mL
- concentration in plasma (Rat [35]; 0.05 h): 4.81 µg/mL
- concentration in plasma (Rat [35]; 4 h): 2.3 µg/mL
- concentration in plasma (Rat [36]): 4.89 µg/mL
- concentration in plasma (Rat [37]): 16.5 µg/mL
